Reference: PubChem BioAssay AID504832 (National Center for Advancing Translational Sciences (NCATS), 2011)
In all, about 310,000 compounds went through this assay and about 18,000 (5.8%) were called active. This list was built around the results that the source calls inconclusive (neither active nor inactive); the mix of calls is not that of the screen. Calls follow the shape of the dose curve; as a rule, active = well fitted inhibition curve with a large enough effect; inconclusive = small, poorly fitted or top-dose-only effect, or another doubt; inactive = no such curve, though single readings can be large or run the other way. Potencies of inconclusive entries are left out as doubtful fits.

assay: Primary qHTS for delayed death inhibitors of the malarial parasite plastid, 48 hour incubation; conditions: P. falciparum luciferase growth in erythrocytes; series mostly up to 28.7 µM
Procedure, shortened: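 Cell-based growth assay: transgenic P. falciparum expressing firefly luciferase, cultured in red cells within RPMI 1640 containing 0.5% w/v Albumax, 24 mM bicarbonate and gentamycin. A drop in luciferase activity indicates inhibition.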
Potency is read from the fitted curve at half-maximal effect; tags tell the direction and shape of the fitted curve.

Compound | Potency
COC(=O)CCc1ccc(O)cc1 | inactive
COc1ccc(NC(=S)N(CCc2nc3cc(C)c(C)cc3[nH]2)Cc2cccnc2)cc1 | inconclusive [inhibitor, partial curve, poor fit]
O=C(N/N=C/c1cn(-c2ccccc2)nc1-c1cccs1)c1ccc(Cl)cc1 | inconclusive [inhibitor, single point]
O=C(COc1ccc(Br)cc1)NC1CC1 | inactive
COC(=O)c1ccc(N2C(=O)c3cc(N4CCOCC4)c([N+](=O)[O-])cc3C2=O)cc1 | inactive
CSc1ccc(CN(C)CCc2ccccn2)cc1 | inactive
CCN(CC)S(=O)(=O)c1ccc(N2CCCC2)c(NS(=O)(=O)c2ccccc2)c1 | inconclusive [inhibitor, partial curve]
COc1ccc(NC(=O)C2CCN(c3ncnc4c3nc3n4CCCCC3)CC2)cc1Cl | inconclusive [inhibitor, full curve, poor fit]
CCN1CCN(S(=O)(=O)c2ccc(Cl)c(C(=O)NCCOc3ccc(C)cc3)c2)CC1 | inconclusive [inhibitor, partial curve]
O=C(Nc1ccncc1)c1cccc(S(=O)(=O)N2CCN(c3ccc(F)cc3)CC2)c1 | inconclusive [inhibitor, single point]
Cc1ccc(C)c(Nc2cc(C)nc(-c3ccccc3O)n2)c1 | inconclusive [inhibitor, single point]
NNC(=O)c1cc2ccccc2cc1O | inconclusive [inhibitor, single point]
COC(=O)C1CC(=O)N(Cc2ccccc2)C1 (centres undefined) | inconclusive [inhibitor, single point]
CCCCNC(=S)NNC(=O)CCn1nc(C)c(Br)c1C | inconclusive [inhibitor, single point]
NC(=O)C1CCN(c2nc(-c3ccccc3N)cs2)CC1 | inconclusive [inhibitor, partial curve, poor fit]
NS(=O)(=O)c1ccc(N2N=C(c3ccccc3)CC2c2ccc(F)cc2)cc1 (centres undefined) | active: 11.7 µM
O=C(NC(=S)Nc1nc2ccccc2s1)c1ccco1 | inactive
CCOC(=O)CC(NS(=O)(=O)c1ccc(NC(C)=O)cc1)c1ccc(OCC)cc1 (centres undefined) | inconclusive [inhibitor, single point]
Cc1cccc(C)c1NC(=O)COC(=O)CCc1c[nH]c2ccccc12 | active: 3.7 µM
CN1CCN(CCCN(Cc2cccs2)C(=S)Nc2ccc(Cl)cc2)CC1 | inconclusive [inhibitor, partial curve, poor fit]
COc1cccc(NC(=O)CN(C)C(=O)c2cccc(NS(=O)(=O)c3ccccc3)c2)c1 | inconclusive [inhibitor, partial curve, poor fit]
CCC(C)c1ccc(NC(=S)N2CCN(S(C)(=O)=O)CC2)cc1 (centres undefined) | inconclusive [inhibitor, partial curve, poor fit]
Oc1ccc(N=Cc2c(O)ccc3ccccc23)cc1 | active: 9.28 µM

Compound | Potency
COCCN=c1scc(-c2cccs2)n1/N=C/c1ccc(O)c(O)c1O | active: 9.28 µM
O=C(NCc1ccccc1)c1ccc(F)c(S(=O)(=O)N2CCOCC2)c1 | inconclusive [inhibitor, partial curve, poor fit]
COC(=O)c1ccc(N2CCN(S(=O)(=O)c3ccc(C)cc3)CC2)c([N+](=O)[O-])c1 | inconclusive [inhibitor, single point]
N#Cc1cccnc1Oc1ccccc1 | inconclusive [inhibitor, full curve, poor fit]
Cc1ccc(CSc2nc3c(c(N(C)C)n2)CCCC3)cc1 | active: 13.1 µM
Cc1cc(C(C#N)c2ccc(Cl)cc2)c(Cl)cc1NC(=O)c1cc(I)cc(I)c1O (centres undefined) | inconclusive [inhibitor, single point]
Cc1ccc(NC(=O)c2ccc([N+](=O)[O-])o2)c(C)c1 | inconclusive [inhibitor, single point]
Cc1cccn2c(=O)c(/C=C(\C#N)C(N)=O)c(N3CCN(c4cccc(Cl)c4)CC3)nc12 | inconclusive [inhibitor, single point]
CCCn1nnc(NC(=O)COc2cc(C)ccc2C(C)C)n1 | inactive
CCOC(=O)COc1c(Br)cc(C2NC(=O)NC(C)=C2C(C)=O)cc1OC (centres undefined) | inconclusive [inhibitor, partial curve, poor fit]
Cc1ccccc1N=C1NC(=O)/C(=C/c2cccn2C)S1 | inconclusive [inhibitor, partial curve, poor fit]
CCC(C)NC(=S)N1CCN(C)CC1 (centres undefined) | inactive
CSc1ccccc1OCc1cc(C(=O)NCCn2nc(C)cc2C)no1 | inconclusive [inhibitor, single point]
O=C(Nc1cccc(F)c1)C1CC(=O)N(c2ccc(Br)cc2)C1 (centres undefined) | inconclusive [inhibitor, partial curve]
COc1ccc(OC)c(C2C(C(N)=O)=C(C)Nc3nc(-c4cccc(Cl)c4)nn32)c1 (centres undefined) | inconclusive [inhibitor, partial curve, poor fit]
Cc1cc(C)cc(N(C(=O)c2snc(C(N)=O)c2N)C(C(=O)NCC2CCCO2)c2cccs2)c1 (centres undefined) | inconclusive [inhibitor, partial curve, poor fit]
CCOC(=O)Nc1ccc2c(CNC(C)c3ccccc3OC)cc(=O)oc2c1 (centres undefined) | inconclusive [inhibitor, full curve]
O=C(NC1CCCC1)C(c1ccc(F)cc1)N(Cc1ccc(Cl)cc1)C(=O)CCl (centres undefined) | inactive
COc1cccc(CC2(CO)CCCN(CC3=Cc4cc(OC)ccc4OC3)C2)c1 (centres undefined) | inconclusive [inhibitor, partial curve, poor fit]
COc1ccc(C2C(C#N)=C3NC(=O)c4c(sc5c4CCCCC5)N3C3=C2C(=O)CC(C)(C)C3)cc1 (centres undefined) | inconclusive [inhibitor, single point]
Cc1oc(-c2ccccc2Cl)nc1CS(=O)(=O)CC(=O)NC1CCCC1 | inconclusive [inhibitor, full curve, poor fit]
CC(=O)Nc1ccc(S(=O)(=O)NCCN2CCNC2=O)cc1Cl | inconclusive [inhibitor, partial curve, poor fit]
Cc1ccc(-c2onc(C)c2C)cc1S(=O)(=O)N1CC(C)Oc2ccccc21 (centres undefined) | active: 14.7 µM

Compound | Potency
CCc1ccccc1NC(=O)CCC(=O)c1cccs1 | inactive
Cc1nnc2sc(SCc3ccccc3Cl)nn2c1=O | inconclusive [inhibitor, partial curve, poor fit]
CCNc1nc(NCC)n2c(SCC(=O)Nc3ccc(F)cc3[N+](=O)[O-])nnc2n1 | inconclusive [inhibitor, partial curve, poor fit]
O=C(CSc1nc2ccccc2c(=O)n1Cc1ccco1)N1CCCCCC1 | active: 5.22 µM
CCOC(=O)c1ccc(NC(=O)COc2ccccc2OC)cc1 | inconclusive [inhibitor, partial curve, poor fit]
CNc1c(N)c(=O)oc2ccccc12 | inactive
O=C(c1ccco1)[C@@H]1[C@@H]2C(=O)N(c3ccccc3)C(=O)[C@@H]2C2c3ccccc3C=CN21 (some centres undefined) | inactive
C=CCN(CC(O)c1cccc([N+](=O)[O-])c1)C(C)CCc1ccccc1 (centres undefined) | active: 1.47 µM
COc1ccc2c(c1OC)C(=O)O[C@@H]2[C@H]1c2cc3c(cc2CCN1C)OCO3 | inconclusive [inhibitor, single point]
O=C(COc1ccc(S(=O)(=O)N2CCCC2)cc1)NCCC1=CCCCC1 | inconclusive [inhibitor, single point]
NC(=O)N/N=C/c1ccccc1OCc1cccc2ccccc12 | inactive
COc1ccccc1N1CCN(C(=O)C2CCN(S(=O)(=O)c3ccc(Cl)cc3)CC2)CC1 | inconclusive [inhibitor, partial curve, poor fit]
Cc1cc(SCC(=O)c2cccs2)n2nc(C)c(-c3ccccc3)c2n1 | inconclusive [inhibitor, single point]
O=C(NC1CC(=O)N(c2ccc(Cl)cc2)C1)N1CCN(C(=O)c2ccco2)CC1 (centres undefined) | inactive
COc1ccc(-c2csc(NC(=S)NC(=O)/C=C/c3ccccc3)n2)cc1Br | inactive
Cc1cc(NC(=O)CN2CCN(S(=O)(=O)c3ccc(Cl)cc3)CC2)no1 | inactive
O=C(CCNS(=O)(=O)c1cccc2nsnc12)Nc1ccc2c(c1)OCCO2 | inactive
O=C(CC1S/C(=N/N=C/C=C/c2ccccc2)NC1=O)Nc1ccc(C(=O)O)cc1 (centres undefined) | inactive
Cc1nn2c(N3CCOCC3)cc(C(C)(C)C)nc2c1-c1ccc(Cl)cc1 | inactive
CCOC(=O)CNC(=O)Cn1cnc2sc(C)c(S(=O)(=O)N3CCOCC3)c2c1=O | inactive
Cc1cc(=O)oc2c3c(cc(OCC(=O)NCc4ccccc4)c12)OC(C)(C)CC3 | inconclusive [inhibitor, partial curve]
CCc1ccc(N(C(=O)c2csnn2)C(C(=O)NC(C)(C)CC)c2cccnc2)cc1 (centres undefined) | inactive
COc1ccc(N2CCN(C(c3cccs3)C(C)NC(=O)c3ccco3)CC2)cc1 (centres undefined) | inconclusive [inhibitor, single point]
